{"source": "patent US12357691B2", "about": "“Antibodies specifically binding to CD147 and uses thereof” (Alphelix Biotech Co., Ltd., priority 2022, dated 2025)", "molecules": {"B1": {"name": "WZHAb10: anti-CD147 (BSG-2) monoclonal antibody, subclass IgG2; heavy chain SEQ ID NO: 17, light chain SEQ ID NO: 18 (antibody)", "heavy": "QVQLVQSGAEVKKPGASVKVSCKASGYTFTNYWIHWVRQAPGQGLEWMGMIHPNSGSINYNEKFKTRVTMTRDTSTSTVYMELSSLRSEDTAVYYCARVGSGSLDYWGQGTLVTVSS[human IgG1 constant region left out here]", "light": "EIVLTQSPATLSLSPGERATLSCRASQSISDYLHWYQQKPGQAPRLLIKYVSQSISGIPARFSGSGSGTYFTLTISSLEPEDVAVYYCQNGEEAPYTFGQGTKLEIKRTVAAPSVFIFPPSDEQLKSGTASVVCLLNNFYPREAKVQWKVDNALQSGNSQESVTEQDSKDSTYSLSSTLTLSKADYEKHKVYACEVTHQGLSSPVTKSFNRGEC"}}, "key": {"A549 cells": {"test_system": "A549 cells", "test": "Measurement of lactate concentration, A549 cells", "assay_type": "cell-based, human", "details": "72 hours; hypoxia"}, "MCT4/BSG-2": {"target": "T1, MCT4/BSG-2 (Mus musculus, UniProt P18572)", "T1 construct": "8xHis-Flag (via Rhinovirus 3C protease-cleavable linker) (C); made in house; host or cells: HEK293S GnTI- (ATCC CRL-3022), pEG BacMam vector", "test": "H+-L-lactate symport flux assay, MCT4/BSG-2 proteoliposomes (HPTS fluorescence)", "assay_type": "biochemical", "details": "H+ influx initiated by 25 mM L-Lactate pH7.0; WZHAb10 6 μM; 25° C.; vs IgG control"}, "[1]": {"test_system": "cancer cells (A20, A549, B16F10)", "test": "Cancer cell survival and lactate transport, pooled statements (FIGS. 5-8)", "assay_type": "cell-based"}, "MCT1/BSG-2": {"target": "T2, MCT1/BSG-2 (Mus musculus, UniProt P18572+P53986)", "T2 construct": "8xHis-Flag (via Rhinovirus 3C protease-cleavable linker) (C); made in house; host or cells: HEK293S GnTI- (ATCC CRL-3022), pEG BacMam vector", "T2 sequence (P53986 1-493)": "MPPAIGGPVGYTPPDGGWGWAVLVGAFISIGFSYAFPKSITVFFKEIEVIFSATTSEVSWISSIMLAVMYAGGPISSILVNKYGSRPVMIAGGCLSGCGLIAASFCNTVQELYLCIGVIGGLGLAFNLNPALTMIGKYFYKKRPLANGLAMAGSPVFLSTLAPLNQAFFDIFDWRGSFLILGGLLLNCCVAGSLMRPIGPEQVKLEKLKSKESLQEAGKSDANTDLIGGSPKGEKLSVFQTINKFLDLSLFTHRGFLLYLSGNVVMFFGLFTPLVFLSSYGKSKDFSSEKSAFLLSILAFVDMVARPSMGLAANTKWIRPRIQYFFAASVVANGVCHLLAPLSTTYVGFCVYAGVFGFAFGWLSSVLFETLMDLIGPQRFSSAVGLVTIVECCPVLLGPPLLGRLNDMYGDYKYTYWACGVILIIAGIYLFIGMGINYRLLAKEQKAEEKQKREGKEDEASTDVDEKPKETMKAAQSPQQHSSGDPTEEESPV", "T2 sequence (P18572 22-273 isoform P18572-2 limits assumed)": "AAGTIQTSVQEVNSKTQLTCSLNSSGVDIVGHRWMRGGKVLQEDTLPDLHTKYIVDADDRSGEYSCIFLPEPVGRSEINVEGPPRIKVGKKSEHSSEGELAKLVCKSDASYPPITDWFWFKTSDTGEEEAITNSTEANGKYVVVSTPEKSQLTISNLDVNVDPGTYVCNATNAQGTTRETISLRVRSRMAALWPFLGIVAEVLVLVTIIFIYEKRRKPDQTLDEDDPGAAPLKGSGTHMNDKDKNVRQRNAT", "test": "H+-pyruvate symport flux assay, MCT1/BSG-2 proteoliposomes (HPTS fluorescence)", "assay_type": "biochemical"}, "[2]": {"test_system": "A549 non-small-cell lung (NSCL) carcinoma cells", "test": "Cell viability assay (CCK8), A549 cells", "assay_type": "cell-based, human", "details": "72 hours; hypoxia"}, "A20 lymphoma cells": {"test_system": "A20 lymphoma cells", "test": "Cell viability assay (CCK8), A20 cells", "assay_type": "cell-based, murine", "details": "72 hours; normoxia"}, "MCT4 uncoupled to BSG-2": {"target": "T3, MCT4 uncoupled to BSG-2 (Mus musculus, UniProt P57787)", "T3 construct": "8xHis-Flag (via Rhinovirus 3C protease-cleavable linker) (C); made in house; host or cells: HEK293S GnTI- (ATCC CRL-3022), pEG BacMam vector", "T3 sequence (P57787 1-470)": "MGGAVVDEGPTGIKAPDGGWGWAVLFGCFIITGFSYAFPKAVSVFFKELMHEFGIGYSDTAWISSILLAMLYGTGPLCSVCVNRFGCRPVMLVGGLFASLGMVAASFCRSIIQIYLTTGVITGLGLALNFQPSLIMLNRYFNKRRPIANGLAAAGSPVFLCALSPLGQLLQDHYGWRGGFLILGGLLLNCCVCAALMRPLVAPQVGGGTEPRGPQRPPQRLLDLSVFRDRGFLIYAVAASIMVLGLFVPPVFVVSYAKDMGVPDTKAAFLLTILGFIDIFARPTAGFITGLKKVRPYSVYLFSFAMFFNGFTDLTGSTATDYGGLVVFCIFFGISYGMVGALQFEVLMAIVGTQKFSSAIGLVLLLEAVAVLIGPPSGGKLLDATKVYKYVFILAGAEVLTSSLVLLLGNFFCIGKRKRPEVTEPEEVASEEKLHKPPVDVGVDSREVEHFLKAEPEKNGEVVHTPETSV", "test": "H+-L-lactate symport flux assay, WT MCT4 proteoliposomes", "assay_type": "biochemical", "details": "25 mM L-Lactate pH7.0; WZHAb10 6 μM; proteoliposomes with WT MCT4"}, "MCT1 uncoupled to BSG-2": {"target": "T4, MCT1 uncoupled to BSG-2 (Mus musculus, UniProt P53986)", "T4 construct": "8xHis-Flag (via Rhinovirus 3C protease-cleavable linker) (C); made in house; host or cells: HEK293S GnTI- (ATCC CRL-3022), pEG BacMam vector", "T4 sequence (P53986 1-493)": "T2 sequence (P53986 1-493)", "test": "H+-pyruvate symport flux assay, WT MCT1 proteoliposomes", "assay_type": "biochemical", "details": "25 mM pyruvate pH7.0; proteoliposomes with WT MCT1"}, "B16F10 cells": {"test_system": "B16F10 cells", "test": "Measurement of lactate concentration, B16F10 cells", "assay_type": "cell-based, murine", "details": "72 hours; hypoxia"}, "[3]": {"test_system": "patient-derived NSCLC organoid", "test": "Organoid drug response assay (CellTiter-Glo)", "assay_type": "cell-based, human", "details": "three days of drug incubation; three patient models", "method": "All procedures performed involving human participants were approved by the Ethics Committee of Shanghai Jiao Tong University School of Medicine and were in accordance with the ethical standards of Helsinki Declaration (as revised in 2013). All the donors signed an informed consent form. Freshly excised tumor samples from patients were kept in MACS tissue storage solution (Miltenyi) at 4° C. upon harvest. Tumor tissues were minced into small pieces on ice, then incubated with 0.001% DNase (Sigma-Aldrich, MO, USA), 1 mg/mL collagenase/dispase (Roche, IN, USA), 200 U/mL penicillin, […], and […] amphotericin B (2% antibiotics, Sigma) in DMEM/F12 medium (Thermofisher) at 37° C. for three hours with gentle agitation and intermittent resuspension. Thereafter, the digested tissue suspension was repeatedly triturated via pipetting and passed through a 70 μm filter. The strained suspension was centrifuged at 112×g for three minutes, and red blood cells were lysed using lysis buffer (00443357, Thermofisher) for five minutes. […]\nThe organoids cultured over two weeks were harvested and dissociated using 1× TrypLe (Thermofisher). […] The plates were agitated for 30 minutes at room temperature (10° C.-30° C.) prior to measuring luminescence."}, "MCT1/BSG-2 complex": {"target": "T5, MCT1/BSG-2 complex (Mus musculus, UniProt P18572+P53986)", "T5 construct": "8xHis-Flag (via Rhinovirus 3C protease-cleavable linker) (C); made in house; host or cells: HEK293S GnTI- (ATCC CRL-3022), pEG BacMam vector", "T5 sequence (P53986 1-493)": "T2 sequence (P53986 1-493)", "T5 sequence (P18572 22-273 isoform P18572-2 limits assumed)": "T2 sequence (P18572 22-273 isoform P18572-2 limits assumed)", "test": "Binding to MCT1/BSG-2 complex by gel filtration (antibody selection)", "details": "purified hybridoma antibodies"}, "B16F10 melanoma cells": {"test_system": "B16F10 melanoma cells", "test": "Cell viability assay (CCK8), B16F10 cells", "assay_type": "cell-based, murine", "details": "72 hours; hypoxia"}, "[4]": {"test_system": "A20(mouse tumor) xenografts", "assay_type": "in vivo, BALB/c nude mice", "details": "5 mg/kg, ip, every other day; vs IgG"}, "[5]": {"test_system": "peripheral blood mononuclear cells (PBMC)", "test": "Toxicity on patients' PBMC", "assay_type": "cell-based, human", "details": "at 0.0006 μM", "method": "Then, treating organoids in presence of 5 μg/mL pembrolizumab, in combination with either of these agents (AZD3965 at 0.1 μM, GSK2837808A at 1 μM, and WZHAb10 at 0.0006 μM) and each PBMC (FIGS. 18, 19 and 20). IgG was used as control in FIG. 18, IgG and/or vehicle were used as control in FIGS. 19-20."}, "A20 cells": {"test_system": "A20 cells", "test": "Measurement of lactate concentration, A20 cells", "assay_type": "cell-based, murine", "details": "72 hours; normoxia"}, "[6]": {"test_system": "A549(human tumor) xenografts", "test": "A549 xenograft model in nude mice", "assay_type": "in vivo", "details": "5 mg/kg"}}, "note": "“Also recorded” adds a separate entry of the source."}
{"molecule": "B1", "values": [{"measurement": "lactate transport of A549 cells", "setting": "A549 cells", "value": "suppressed cell survival and lactate transport"}, {"measurement": "reduction of transport activity of MCT4/BSG-2", "setting": "MCT4/BSG-2", "value": "~50", "unit": "%"}, {"measurement": "suppression of survival and lactate transport of cancer cells compared with AZD3965", "setting": "[1]", "value": "stronger suppression than AZD3965"}, {"measurement": "reduction of transport activity of MCT1/BSG-2", "setting": "MCT1/BSG-2; H+ influx initiated by 25 mM pyruvate pH7.0, WZHAb10 3 μM or 6 μM, 25° C., vs IgG control", "value": "around 75%"}, {"measurement": "inhibition of MCT1 transport activity (antibody selection)", "setting": "MCT1/BSG-2; among five binding antibodies", "value": "proved to inhibit MCT1 transport activity"}, {"measurement": "cell proliferation / survival of A549 cells", "setting": "[2]", "value": "suppressed cell proliferation; also recorded: suppressed cell survival"}, {"measurement": "cell proliferation / survival of A20 cells", "setting": "A20 lymphoma cells", "value": "suppressed cell proliferation; also recorded: suppressed cell survival"}, {"measurement": "effect on transport activity of MCT4 uncoupled to BSG-2", "setting": "MCT4 uncoupled to BSG-2", "value": "did not affect transport activity"}, {"measurement": "effect on transport activity of MCT1 uncoupled to BSG-2", "setting": "MCT1 uncoupled to BSG-2", "value": "did not affect transport activity"}, {"measurement": "lactate transport of B16F10 cells", "setting": "B16F10 cells", "value": "suppressed cell survival and lactate transport"}, {"measurement": "anti-proliferative effect of single agent on organoids", "setting": "[3]", "value": "moderate anti-proliferative effect"}, {"measurement": "binding to MCT1/BSG-2 complex", "setting": "MCT1/BSG-2 complex", "value": "strong binding"}, {"measurement": "cell proliferation / survival of B16F10 cells", "setting": "B16F10 melanoma cells", "value": "suppressed cell proliferation; also recorded: suppressed cell survival"}, {"measurement": "tumor growth, A20 xenograft", "setting": "[4]", "value": "evidently suppressed tumor growth"}, {"measurement": "effect on T cell growth (PBMC)", "setting": "[5]", "value": "little effects on T cell growth"}, {"measurement": "lactate transport of A20 cells", "setting": "A20 cells", "value": "suppressed cell survival and lactate transport"}, {"measurement": "body weights during treatment, A549 xenograft", "setting": "[6]; ip, every other day", "value": "little effect on body weights"}, {"measurement": "tumor growth, A549 xenograft", "setting": "[6]; ip, every other day, vs IgG", "value": "evidently suppressed tumor growth"}, {"measurement": "toxicity of treatment", "setting": "[6]; xenograft mice", "value": "not associated with any obvious toxicity"}]}
